Source: article PMC4336329 (PLoS ONE, 2015)
In all, about 310,000 compounds went through this assay and about 2,200 (0.71%) showed an effect of 50% or more. Effects have a minus sign here. Some of the results follow.

target: human ether-à-go-go-related gene (hERG) potassium channel (human, UniProt Q12809); assay: primary screen, population patch clamp on CHO cells stably expressing hERG
Sequence (Q12809 whole entry, looked up): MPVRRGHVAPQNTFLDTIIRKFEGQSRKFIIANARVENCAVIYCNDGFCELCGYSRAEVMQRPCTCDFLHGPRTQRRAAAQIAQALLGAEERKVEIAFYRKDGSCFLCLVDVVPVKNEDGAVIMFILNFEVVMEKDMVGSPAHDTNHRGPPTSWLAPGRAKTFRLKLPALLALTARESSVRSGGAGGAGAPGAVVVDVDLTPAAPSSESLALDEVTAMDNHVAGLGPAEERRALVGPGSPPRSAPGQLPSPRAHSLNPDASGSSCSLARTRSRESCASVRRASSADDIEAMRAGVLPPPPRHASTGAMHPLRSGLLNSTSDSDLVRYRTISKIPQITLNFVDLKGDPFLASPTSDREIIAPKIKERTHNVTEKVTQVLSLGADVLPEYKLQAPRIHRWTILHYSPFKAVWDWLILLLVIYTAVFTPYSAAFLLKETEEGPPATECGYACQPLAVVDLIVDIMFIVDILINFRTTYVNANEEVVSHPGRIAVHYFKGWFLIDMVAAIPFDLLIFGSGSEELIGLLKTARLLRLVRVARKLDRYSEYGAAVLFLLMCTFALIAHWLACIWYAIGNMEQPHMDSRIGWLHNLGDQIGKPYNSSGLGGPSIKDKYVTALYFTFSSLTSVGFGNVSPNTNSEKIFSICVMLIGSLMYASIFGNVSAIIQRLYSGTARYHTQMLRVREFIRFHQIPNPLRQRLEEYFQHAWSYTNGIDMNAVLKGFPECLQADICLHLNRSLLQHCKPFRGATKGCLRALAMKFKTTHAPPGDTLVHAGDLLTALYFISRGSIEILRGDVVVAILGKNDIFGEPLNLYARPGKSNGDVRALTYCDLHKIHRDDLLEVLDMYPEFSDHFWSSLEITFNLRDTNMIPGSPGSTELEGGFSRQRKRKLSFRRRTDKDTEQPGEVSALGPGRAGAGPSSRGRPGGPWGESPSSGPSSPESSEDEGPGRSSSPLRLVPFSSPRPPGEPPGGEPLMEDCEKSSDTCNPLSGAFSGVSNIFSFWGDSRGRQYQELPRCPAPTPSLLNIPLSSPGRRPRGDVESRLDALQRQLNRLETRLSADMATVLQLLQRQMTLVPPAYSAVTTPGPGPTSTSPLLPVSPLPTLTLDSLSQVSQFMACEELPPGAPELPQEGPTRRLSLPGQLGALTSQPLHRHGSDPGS

Q: Which “hERG current change (%, negative = inhibition) at 1uM” value does the source give for `O=C1CCCN2N=C(SCC(=O)N3N=C(c4ccc(Br)cc4)CC3c3ccc(F)cc3)SC2=N1` (stereo not drawn) here?
A: Its value is 5.91%.

Q: Which “hERG current change (%, negative = inhibition) at 1uM” value does the source give for `N/C(=N\OC(=O)Oc1ccccc1)c1ccc(Br)cc1` here?
A: The value was 2.93%.

Q: With `O=C(N/N=C/c1ccc(OC(F)F)cc1)c1ccc(Br)cc1` as the compound, how does the “hERG current change (%, negative = inhibition) at 1uM” value read?
A: Its value is 2.07%.

Q: How did the “hERG current change (%, negative = inhibition) at 1uM” value turn out when `O=C(CC1NC(=O)NC1=O)Nc1ccc(Cl)cc1` (stereo not drawn) was run?
A: The value was 21.8%.

Q: `COc1cccc(-c2nc(C(=O)NCCCN3CCOCC3)cc3c2[nH]c2ccccc23)c1` was tested. Which “hERG current change (%, negative = inhibition) at 1uM” value did it give?
A: The value was -1.55%.

Q: For `CCOC(=O)C1=C(C)NC2=C(C(=O)CCC2)C1c1coc2ccccc2c1=O` (stereo not drawn), which “hERG current change (%, negative = inhibition) at 1uM” value is on record?
A: Its value is 10.7%.

Q: `CCOC(=O)c1ccc(N2CCOCC2)c(NC(=O)c2ccc3c(c2)OCO3)c1` was tested. Which “hERG current change (%, negative = inhibition) at 1uM” value did it give?
A: Its value is 6.28%.

Q: With `CN(CC(=O)Nc1ccc(Cl)cc1)C(=O)CNC(=O)c1ccc(Br)o1` as the compound, how does the “hERG current change (%, negative = inhibition) at 1uM” value read?
A: The value was 13.1%.

Q: `CN(c1ccccc1)S(=O)(=O)c1ccc(C(=O)NCC(c2ccco2)N2CCCCC2)cc1` (stereo not drawn) was tested. Which “hERG current change (%, negative = inhibition) at 1uM” value did it give?
A: Its value is -3.64%.

Q: For `O=C(NC1CC1)C(Cl)c1ccccc1` (stereo not drawn), which “hERG current change (%, negative = inhibition) at 1uM” value is on record?
A: Its value is 9.14%.

Q: `CCCCCc1c(O)c2ccccc2[nH]c1=O` was tested. Which “hERG current change (%, negative = inhibition) at 1uM” value did it give?
A: The value was 2.35%.

Q: `O=C(Cn1ncc2c(=O)oc3ccccc3c21)N1CCc2ccccc2C1` was tested. Which “hERG current change (%, negative = inhibition) at 1uM” value did it give?
A: Its value is 10.5%.

Q: With `O=C(c1ccc(S(=O)(=O)N2CCCC2)cc1)N1CCN(Cc2ccc3c(c2)OCO3)CC1` as the compound, how does the “hERG current change (%, negative = inhibition) at 1uM” value read?
A: The value was -13.5%.

Q: How did the “hERG current change (%, negative = inhibition) at 1uM” value turn out when `CC1CC1C(=O)OCC(=O)NC(=O)NC12CC3CC(CC(C3)C1)C2` (stereo not drawn) was run?
A: The value was 11.6%.

Q: For `CCSc1ncnc2c1sc1nc(-c3ccco3)c3c(c12)CC(C)(C)OC3`, which “hERG current change (%, negative = inhibition) at 1uM” value is on record?
A: The value was 12.8%.

Q: Which “hERG current change (%, negative = inhibition) at 1uM” value does the source give for `CC1(C)CC(=O)C=C(N2CCOCC2)C1` here?
A: The value was 11.3%.

Q: How did the “hERG current change (%, negative = inhibition) at 1uM” value turn out when `O=C(OCC(=O)N1CCC(Cc2ccccc2)CC1)c1ccccc1F` was run?
A: Its value is 11.7%.

Q: `C[n+]1c(-c2ccccc2)sc2ccccc21.[O-][Cl+3]([O-])([O-])[O-]` was tested. Which “hERG current change (%, negative = inhibition) at 1uM” value did it give?
A: Its value is 17.9%.

Q: Which “hERG current change (%, negative = inhibition) at 1uM” value does the source give for `CCCCN1CCN=C1Nc1ccccc1` here?
A: The value was 11.8%.

Q: Which “hERG current change (%, negative = inhibition) at 1uM” value does the source give for `Cl.Nc1n[nH]c(-c2ccc(F)cc2)n1` here?
A: The value was 4.01%.

Q: How did the “hERG current change (%, negative = inhibition) at 1uM” value turn out when `COc1ccc(CN2CCNC(=O)C2CC(=O)NCC(C)(C)N2CCOCC2)cc1C` (stereo not drawn) was run?
A: Its value is 15.3%.

Q: `Cn1c(=O)oc2cc(S(=O)(=O)N3CCC(C(=O)NCC4COc5ccccc5O4)CC3)ccc21` (stereo not drawn) was tested. Which “hERG current change (%, negative = inhibition) at 1uM” value did it give?
A: Its value is 7.13%.

Q: Which “hERG current change (%, negative = inhibition) at 1uM” value does the source give for `Cc1nc2ccccc2c(=O)n1/N=C/c1ccccc1` here?
A: The value was 10.3%.

Q: With `COC(=O)c1ccccc1S(=O)(=O)N1CCC(C(=O)NCC2CCCO2)CC1` (stereo not drawn) as the compound, how does the “hERG current change (%, negative = inhibition) at 1uM” value read?
A: Its value is 12.7%.

Q: How did the “hERG current change (%, negative = inhibition) at 1uM” value turn out when `CN1CCN(C2=C(NS(=O)(=O)c3ccccc3)C(=O)c3ccccc3C2=O)CC1` was run?
A: Its value is 11.5%.

Q: For `CCOc1ccc(-c2c(=O)n(OCc3ccc([N+](=O)[O-])cc3)c3ccccc3[n+]2[O-])c(OCC)c1`, which “hERG current change (%, negative = inhibition) at 1uM” value is on record?
A: The value was 3.68%.

Q: `Cc1ccc(N/N=C/c2ccncc2)cc1.Cl` was tested. Which “hERG current change (%, negative = inhibition) at 1uM” value did it give?
A: Its value is 11.1%.

Q: How did the “hERG current change (%, negative = inhibition) at 1uM” value turn out when `CCN1CCN(CCC(=O)Nc2ccccc2OC)CC1` was run?
A: The value was 10.9%.

Q: Which “hERG current change (%, negative = inhibition) at 1uM” value does the source give for `COc1ccc(C=C2c3ccccc3C(=O)c3ccccc32)c(OC)c1` here?
A: Its value is 7.49%.

Q: `O=C(O)c1ccccc1C(=O)Nc1nc(-c2ccccc2)cs1` was tested. Which “hERG current change (%, negative = inhibition) at 1uM” value did it give?
A: The value was 2.8%.

Q: How did the “hERG current change (%, negative = inhibition) at 1uM” value turn out when `O=C(C1CCCC1)N1CCCC(Nc2ccc(F)cc2)C1` (stereo not drawn) was run?
A: The value was -16.6%.

Q: How did the “hERG current change (%, negative = inhibition) at 1uM” value turn out when `COCCCNc1nc2ccccc2nc1NS(=O)(=O)c1ccc(Cl)cc1` was run?
A: Its value is 1.52%.

Q: With `COc1ccc(-c2noc(N3CCC(C(=O)Nc4cccc(OC)c4)CC3)n2)cc1` as the compound, how does the “hERG current change (%, negative = inhibition) at 1uM” value read?
A: Its value is 12.1%.

Q: With `O=C(Cc1ccc(Cl)c(Cl)c1)NNC(=S)NCC1CCCO1` (stereo not drawn) as the compound, how does the “hERG current change (%, negative = inhibition) at 1uM” value read?
A: The value was 13.2%.

Q: How did the “hERG current change (%, negative = inhibition) at 1uM” value turn out when `COc1ccc(CC(=O)O/N=C(\N)c2ccccn2)cc1OC` was run?
A: The value was 11.8%.

Q: Which “hERG current change (%, negative = inhibition) at 1uM” value does the source give for `O=C1OC(NCc2cccnc2)(c2ccc(Cl)cc2)c2ccccc21` (stereo not drawn) here?
A: Its value is 9.52%.

Q: For `CCCCN1C(=S)NC[C@@H]1Cc1ccccc1`, which “hERG current change (%, negative = inhibition) at 1uM” value is on record?
A: Its value is -9.48%.

Q: `CSc1ccccc1C(=O)C1CCCN(Cc2ccncc2)C1` (stereo not drawn) was tested. Which “hERG current change (%, negative = inhibition) at 1uM” value did it give?
A: Its value is -13.9%.

Q: Which “hERG current change (%, negative = inhibition) at 1uM” value does the source give for `CNC(=S)N/N=C/c1c(C)nn(-c2ccc(F)cc2)c1Cl` here?
A: The value was 13%.

Q: Which “hERG current change (%, negative = inhibition) at 1uM” value does the source give for `CN1CCN(CCC2Oc3cc([N+](=O)[O-])ccc3NC2=O)CC1` (stereo not drawn) here?
A: Its value is -5.52%.

Q: `COc1cc(NC(=O)c2ccc(N)nc2)cc(C(=O)Nc2cccc(C(F)(F)F)c2)c1` was tested. Which “hERG current change (%, negative = inhibition) at 1uM” value did it give?
A: Its value is 8.56%.

Q: How did the “hERG current change (%, negative = inhibition) at 1uM” value turn out when `Cc1ccc(S(=O)(=O)N2CCCCC2)cc1C(=O)NCCCN1CCOCC1` was run?
A: Its value is 10.9%.

Q: `CCSc1nnc(NC(=O)[C@H](C)NC(=O)c2ccccc2Cl)s1` was tested. Which “hERG current change (%, negative = inhibition) at 1uM” value did it give?
A: Its value is 8.07%.

Q: With `c1ccc2c(c1)Sc1ccccc1-n1cnnc1-2` as the compound, how does the “hERG current change (%, negative = inhibition) at 1uM” value read?
A: Its value is 9.06%.

Q: How did the “hERG current change (%, negative = inhibition) at 1uM” value turn out when `Cc1ccc(N(CC(=O)NCCSc2ccccn2)S(=O)(=O)c2ccc(F)cc2)cc1` was run?
A: Its value is -7.62%.
